The record followed here is paper PMC6703713.

By UniProt entry, the sequences of proteins in these tests, tags left out. Where a name states a change or a piece, a line headed by the entry shows the natural chain unless it says otherwise. Chains listed by the source or under a name are the forms on record and can include a tag or linker.
UniProt P40793: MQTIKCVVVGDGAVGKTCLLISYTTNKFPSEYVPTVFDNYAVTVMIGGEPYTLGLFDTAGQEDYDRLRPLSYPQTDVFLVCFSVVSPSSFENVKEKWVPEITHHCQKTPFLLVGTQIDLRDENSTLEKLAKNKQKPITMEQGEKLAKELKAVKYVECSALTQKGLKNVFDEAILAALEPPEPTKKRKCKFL
GST::Cdc42^V12 (P40793, form named): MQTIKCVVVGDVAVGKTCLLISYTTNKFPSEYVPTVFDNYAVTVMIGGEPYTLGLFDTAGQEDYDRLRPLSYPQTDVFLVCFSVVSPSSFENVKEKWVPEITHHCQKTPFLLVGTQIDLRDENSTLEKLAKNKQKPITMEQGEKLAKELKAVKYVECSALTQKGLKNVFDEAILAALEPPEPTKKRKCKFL
GST::Cdc42^N17 (P40793, form named): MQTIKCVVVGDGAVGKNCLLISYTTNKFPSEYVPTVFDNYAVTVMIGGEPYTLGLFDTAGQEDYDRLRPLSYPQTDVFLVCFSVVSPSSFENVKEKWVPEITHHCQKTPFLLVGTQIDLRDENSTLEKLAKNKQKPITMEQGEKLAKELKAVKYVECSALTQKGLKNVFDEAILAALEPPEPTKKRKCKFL

Assay [1] has as its target GST::Cdc42^V12 (Drosophila) (UniProt P40793). Nature of the assay: pull-down; GST-fusion protein purified and kept on glutathione Sepharose beads; S2R+ cell lysate added for 1 h at 4°C; washed three times in lysis buffer (50 mM Tris HCl pH 7.5, 150 mM NaCl, 0.5% Triton X-100, 1 mM EDTA); western blot and Coomassie Blue staining; only the target purified. In general terms: In western blotting, separated proteins are transferred to a membrane and probed.

Assay [2] addresses GST::Cdc42^N17 (Drosophila) (UniProt P40793). The description is as above.
Assay [3] has as its target T1, Par6^K23A::Flag (Drosophila) (UniProt O97111).
T1 sequence: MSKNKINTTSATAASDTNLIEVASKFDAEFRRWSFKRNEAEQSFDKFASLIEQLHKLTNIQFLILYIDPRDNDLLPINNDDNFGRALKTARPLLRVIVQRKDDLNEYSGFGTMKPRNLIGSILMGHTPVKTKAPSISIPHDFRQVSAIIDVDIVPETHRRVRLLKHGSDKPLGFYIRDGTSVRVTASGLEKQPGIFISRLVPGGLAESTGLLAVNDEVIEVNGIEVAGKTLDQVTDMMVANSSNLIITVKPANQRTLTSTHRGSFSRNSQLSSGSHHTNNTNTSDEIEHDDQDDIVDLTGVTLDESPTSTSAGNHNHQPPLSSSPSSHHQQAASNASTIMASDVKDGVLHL
Nature of the assay: co-IP; Par6::Flag immunoprecipitated with anti-FLAG M2 magnetic beads for 1 h at 4°C from lysates of transfected S2R+ cells; washed three times in lysis buffer; endogenous aPKC seen by western blot.

The target of assay [4] is T2, Par6^Δ139P::Flag (Drosophila) (UniProt O97111).
T2 sequence: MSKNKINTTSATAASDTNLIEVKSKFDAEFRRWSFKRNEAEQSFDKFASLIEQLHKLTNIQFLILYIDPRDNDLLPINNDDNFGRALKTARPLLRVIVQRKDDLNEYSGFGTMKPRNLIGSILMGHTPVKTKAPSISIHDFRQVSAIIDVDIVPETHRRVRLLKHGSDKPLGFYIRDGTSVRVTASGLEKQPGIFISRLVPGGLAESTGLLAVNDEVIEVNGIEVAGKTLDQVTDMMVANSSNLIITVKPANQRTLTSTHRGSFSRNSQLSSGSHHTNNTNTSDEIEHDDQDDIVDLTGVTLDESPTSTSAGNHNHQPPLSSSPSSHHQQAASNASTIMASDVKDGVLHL
The assay is described as above.

Assay [5] deals with T3, Par6^KPLG170-173AAAA::Flag (Drosophila) (UniProt O97111).
T3 sequence: T1 sequence with A23K, K170A, P171A, L172A, G173A
The description is as above.

Assay [6] deals with T4, Par6::Flag (wild type) (Drosophila) (UniProt O97111).
T4 sequence: T1 sequence with A23K
Described as above.

Residue numbers refer to the chain shown, from its start. Names and notes keep the numbering of the source. Results are given in words; binding and its absence hold for the method and conditions named. Binding seen in cells or lysates may run through a third protein. Some entries that bind do so weakly or less than the wild type. Sequences can lack the tags named with a protein.

B1: Par6^Δ139P::Flag (protein, UniProt O97111 1-351)
chain: T2 sequence
For the molecule B1, the binding result in assay [1] is given as “no binding”.

B2: Par6::Flag (wild type) (protein, UniProt O97111 1-351)
chain: T1 sequence with A23K
On to B2, for which the values for the binding result in assay [1] and in assay [2] were “binds” and “no binding”, respectively.

B3: Par6^K23A::Flag (protein, UniProt O97111 1-351)
chain: T1 sequence
In the case of B3, the binding result in assay [1] was “binds”.

B4: Par6^KPLG170-173AAAA::Flag (protein, UniProt O97111 1-351)
chain: T1 sequence with A23K, K170A, P171A, L172A, G173A
Turning to B4, in assay [1], the binding result is “binds”.

B5: aPKC (endogenous) (protein, UniProt A1Z9X0 1-606)
chain: MQKMPSQILNDGSSVSLNSASMNMANTPNSITVKTAYNGQIIITTINKNISYEELCYEIRNICRFPLDQPFTIKWVDEENDPCTISTKMELDEAIRLYEMNFDSQLVIHVFPNVPQAPGLSCDGEDRSIYRRGARRWRKLYRVNGHIFQAKRFNRRAFCAYCQDRIWGLGRQGFKCIQCKLLVHKKCHKLVQKHCTDQPEPLVKERAEESSDPIPVPLPPLPYEAMSGGAEACETHDHAHIVAPPPPEDPLEPGTQRQYSLNDFELIRVIGRGSYAKVLMVELRRTRRIYAMKVIKKALVTDDEDIDWVQTEKHVFETASNHPFLVGLHSCFQTPSRLFFVIEFVRGGDLMYHMQRQRRLPEEHARFYAAEISLALNFLHEKGIIYRDLKLDNVLLDHEGHIKLTDYGMCKEGIRPGDTTSTFCGTPNYIAPEILRGEDYGFSVDWWALGVLLYEMLAGRSPFDLAGASENPDQNTEDYLFQVILEKTIRIPRSLSVRAASVLKGFLNKNPADRLGCHRESAFMDIVSHPFFKNMDWELLERKQVTPPFKPRLDSDRDLANFPPEFTGEAVQLTPDDDHVIDNIDQSEFEGFEYVNPLLMSLEDCV
Regarding B5, the binding entry in assay [3] is listed as “no binding”; in assay [4], “binds”; in assay [5] it was “binds”; in assay [6], “binds”.
